Out of some 150,000 compounds screened, about 6,500 (4.3%) were called active. The inconclusive results got no clear call from the source; some entries with a clear call stand among them for comparison. Calls come from the whole dose curve; as a rule, active = well fitted inhibition curve with a large enough effect (not every such curve was filed as active); inconclusive = small, poorly fitted or top-dose-only effect, or another doubt; inactive = no such curve, though single readings can be large or run the other way. No potency is given beside an inconclusive call; the fits are too rough.
These molecules were tested against 15-hydroxyprostaglandin dehydrogenase [NAD(+)] (Homo sapiens) (UniProt P15428) (assay: qHTS Assay for Inhibitors of HPGD (15-Hydroxyprostaglandin Dehydrogenase)). Conditions: purified HPGD, NADH fluorescence kinetic, PGE2 substrate; activity change, negative = inhibition: stronger effect = lower value.
UniProt P15428, sequence (P15428 whole entry, looked up): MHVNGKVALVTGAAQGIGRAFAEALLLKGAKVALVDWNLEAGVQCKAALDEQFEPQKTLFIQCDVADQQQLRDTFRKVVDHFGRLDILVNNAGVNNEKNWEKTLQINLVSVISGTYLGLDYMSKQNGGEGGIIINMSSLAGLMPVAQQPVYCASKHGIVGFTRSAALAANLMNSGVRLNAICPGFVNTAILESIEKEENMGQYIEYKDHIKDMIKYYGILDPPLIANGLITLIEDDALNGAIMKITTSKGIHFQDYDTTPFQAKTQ
Outline: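 20 nM HPGD preincubated 15 min at room temperature with compound in 50 mM Tris-HCl pH 8, 0.01% Tween 20. Started with 1 mM NAD+ and 30 uM prostaglandin E2; NADH fluorescence (360/450 nm) read 5 times over 30-s intervals, last minus first.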
% is set by controls: 0 for no effect and ±100 for the full control effect; potency is the fitted concentration of half-maximal effect; tags give direction and shape of the fitted curve.

| SMILES | Potency | activity change, negative = inhibition |
| --- | --- | --- |
| COc1ccc(-c2c(C(C)=O)c(C)nc3sc4c(=O)[nH]nnc4c23)cc1 | active: 17.8 µM | – |
| Nc1c(N=Nc2ccccc2F)c(=O)[nH]n1-c1ccccc1 | – | inactive: -0.732% |
| CCOC(=O)c1c(NC(=O)CSc2n[nH]c(-c3ccco3)n2)sc(C)c1C | active: 15.8 µM | – |
| CCCn1c2c(c(O)c(C(=O)Nc3ccc(OC)cc3)c1=O)CCCC2 | inconclusive [inhibitor, partial curve] | – |
| Cc1cc(S(=O)(=O)N2CCN=C2c2ccccc2)c(C)cc1Cl | – | inactive: -3.1% |
| Nc1ccccc1NC(=O)c1ccccc1N | inconclusive [inhibitor, partial curve] | – |
| O=C(Nc1ccc(O)c2c(=O)cc(-c3ccccc3Cl)oc12)c1cccc(Cl)c1 | – | inactive: -10.3% |
| O=C(/C=C/c1ccccc1Cl)NCc1cccs1 | active: 14.1 µM | – |
| COc1ccc(NCC(=O)Nc2ccccc2C#N)cc1Cl | inconclusive [inhibitor, partial curve] | – |
| CCOC(=O)c1sc(NC(=O)c2ccc(S(=O)(=O)N3CCCCCC3)cc2)nc1-c1ccccc1 | inconclusive [inhibitor, single point] | – |
| Cc1ccc(-c2nc3cc(NC(=O)C(C)C)ccc3o2)cc1 | inconclusive [inhibitor, partial curve] | – |
| S=c1[nH]nc(COc2ccc(Cl)cc2)n1C1CCCCC1 | active: 14.1 µM | – |
| Cc1ccc(C(=O)CC(=O)c2cc(Cl)ccc2O)cc1 | active: 28.2 µM | – |
| COc1cc(OC)c(OC)cc1/C=N/NC(=O)CC1C(=O)NN=C1C (stereo not given) | inconclusive [inhibitor, partial curve] | – |
| Cc1cc(=O)oc2cc(OCC(=O)N3CC(C)OC(C)C3)ccc12 (stereo not given) | inconclusive [inhibitor, partial curve] | – |
| Cc1c2c(nc3ccccc13)-c1cccc(=O)n1C2 | inconclusive [inhibitor, partial curve] | – |
| O=C(OC1CCCCC1)c1ccc2c(c1)C1C=CCC1C(C(=O)O)N2 (stereo not given) | inconclusive [inhibitor, single point] | – |
| COc1ccc(/C=N/c2oc(-c3ccccc3)cc2C#N)cc1 | inconclusive [inhibitor, partial curve] | – |
| COc1nc(-c2ccc(C)cc2)ccc1-c1noc(-c2cccnc2)n1 | inconclusive [inhibitor, partial curve] | – |
| Nc1nnc(SCC(=O)Nc2ccc3nc(SCC(=O)Nc4ccccc4)sc3c2)s1 | active: 4.47 µM | – |
| CCOC(=O)c1cc(C#N)c(N2CCCC2)nc1-c1ccccc1 | inconclusive [inhibitor, partial curve] | – |
| CCOC(=O)c1cc(-c2ccccc2)sc1NC(=O)C(C)OC(=O)c1cccnc1OCC (stereo not given) | inconclusive [inhibitor, single point] | – |
| O=C(CSCc1ccccc1)NCc1ccc2c(c1)OCO2 | active: 20 µM | – |
| C=CCNC(=O)c1ccc2nccnc2c1 | active: 15.8 µM | – |

| SMILES | Potency | activity change, negative = inhibition |
| --- | --- | --- |
| COc1cc(NC(=O)c2cccs2)c(C(=O)OCC(=O)c2cc(C)n(-c3ccc(F)cc3)c2C)cc1OC | inconclusive [inhibitor, partial curve] | – |
| COCCn1c(=O)c(-c2ccccc2)nc2cnc(N3CCNCC3)nc21 | inconclusive [inhibitor, partial curve] | – |
| CC(NC(=O)c1cc2sccc2n1C)c1ccc2c(c1)OCCO2 (stereo not given) | inconclusive [inhibitor, partial curve] | – |
| NC(=O)c1c(NC(=O)c2ccccc2)sc2c1CCc1ccccc1-2 | inconclusive [inhibitor, single point] | – |
| Cc1sc(NC(=O)c2ccccc2)c(C(=O)c2ccccc2)c1C | active: 3.55 µM | – |
| CN(C)C1C(=O)C(C(N)=O)C(=O)C2(O)C(=O)C3C(=O)c4c(O)ccc(Cl)c4C(O)C3CC12 (stereo not given) | – | inactive: -20.1% |
| CCOC(=O)C(C)(C)N(Cc1cccc(C)c1)S(=O)(=O)c1cccc([N+](=O)[O-])c1 | – | inactive: -8.72% |
| CN(C)c1ccc(C(C(=O)NC(C)(C)C)N(C(=O)c2csnn2)C2CC2)cc1 (stereo not given) | inconclusive [inhibitor, partial curve] | – |
| CCc1nc(SCC(=O)c2ccc(C)c(C)c2)n[nH]1 | inconclusive [inhibitor, single point] | – |
| Cn1nc(-c2ccc(C(=O)Nc3cccnc3)cc2)c2ccccc2c1=O | inconclusive [inhibitor, partial curve] | – |
| COc1cc(OC)cc(-c2cc3nc(C4CCN(C(=O)OC(C)(C)C)CC4)cc(=O)n3[nH]2)c1 | inconclusive [inhibitor, partial curve] | – |
| COC(=O)c1sc(NC(C)=O)c(C(=O)OC)c1C | active: 31.6 µM | – |
| COc1ccc(CC(=O)Nc2ccc3c(c2)OCO3)cc1S(=O)(=O)N1CCOCC1 | – | inactive: -13.8% |
| O=c1[nH]c2cc3c(cc2cc1CN(Cc1cccnc1)Cc1nnnn1Cc1ccco1)OCCO3 | inconclusive [inhibitor, single point] | – |
| COc1ccc(Cn2c(-c3ccc(C)cc3)c[n+]3ccccc23)cc1 | – | inactive: -6.45% |
| CCn1cc(C(=O)NCc2ccc3c(c2)OCO3)c(=O)c2cc(S(=O)(=O)N3CCOCC3)ccc21 | inconclusive [inhibitor, partial curve] | – |
| O=C(COC(=O)CNC(=O)c1ccc(Cl)cc1)Nc1ccc(Cl)cc1C(F)(F)F | – | inactive: 0.322% |
| Cc1ccc(-c2nc3ccccc3n3nnnc23)cc1 | inconclusive [inhibitor, partial curve] | – |
| O=C(CCCn1c(=O)[nH]c2ccccc2c1=O)NC1CCCCCC1 | inconclusive [inhibitor, partial curve] | – |
| COc1ccccc1OCC(=O)Nc1ccc(S(=O)(=O)N2CCCCCC2)cc1 | inconclusive [inhibitor, partial curve] | – |
| O=C(COC(=O)c1ccccc1NC(=O)c1ccco1)NCC1CCCCC1 | inconclusive [inhibitor, single point] | – |
| O=C(NC1CCCCC1)c1ccc(Cc2nc3ccccc3[nH]2)cc1 | – | inactive: -3.53% |
| CC(C)Oc1ccc(C(=O)Nc2ccc(C(F)(F)F)n(C)c2=O)cc1 | – | inactive: -24.3% |
| CC1(C)CC(=O)C2=C(C1)c1c(ccc3ccccc13)NC2c1ccco1 (stereo not given) | inconclusive [inhibitor, partial curve] | – |

| SMILES | Potency | activity change, negative = inhibition |
| --- | --- | --- |
| O=C(CSc1cccc[n+]1[O-])Nc1cc(S(=O)(=O)N2CCOCC2)ccc1N1CCOCC1 | – | inactive: -4.63% |
| O=C(CCSc1nccn1Cc1ccccc1)N1CCOCC1 | inconclusive [inhibitor, single point] | – |
| CC1CCc2c(sc3nn[nH]c(=O)c23)C1 (stereo not given) | inconclusive [inhibitor, single point] | – |
| COc1ccc(NC(=O)CSc2nnc(NC(=O)c3ccc(S(=O)(=O)N4CCOCC4)cc3)s2)cc1 | inconclusive [inhibitor, partial curve] | – |
| c1ccc(C2CCC(N3CCNCC3)CC2)cc1 (stereo not given) | inconclusive [inhibitor, single point] | – |
| Cc1ccc(CO)cc1 | – | inactive: -16% |
| Cc1cc(/C=N/n2cnnc2)c(C)n1-c1cccc(C(=O)O)c1 | inconclusive [inhibitor, partial curve] | – |
| COc1ccc2[nH]c(=O)c(CN(CCO)C(=O)NCc3ccccc3)cc2c1 | inconclusive [inhibitor, partial curve] | – |
| Cn1c2c(c(=O)n(C)c1=O)C(C(F)(F)F)(C(F)(F)F)N=C(C1CCCCC1)N2 | – | inactive: -1.05% |
| COc1ccc(-c2cc(C(=O)Nc3cc(C)n(Cc4ccc(Cl)cc4)n3)no2)cc1OC | inconclusive [inhibitor, partial curve] | – |
| Cc1ccc(O)c(N=CC2=C(O)c3ccccc3C2=O)c1 | inconclusive [inhibitor, partial curve] | – |
| O=C(Cc1ccc(-c2ccccc2)cc1)NC(c1ccccc1)c1ccccc1 | active: 12.6 µM | – |
| COc1cccc(NC(=O)Cc2nnc(SCC(=O)c3ccccc3)n2C)c1 | active: 31.6 µM | – |
| COC(=O)c1[nH]c2ccccc2c1NC(=O)CN1CCN(Cc2ccc3c(c2)OCO3)CC1 | inconclusive [inhibitor, partial curve] | – |
| COc1cc(SC)ccc1C(=O)N(C)Cc1ccccc1 | inconclusive [inhibitor, single point] | – |
| CCc1nnc(NS(=O)(=O)c2ccc(NC(=O)/C=C/c3ccc(OC)cc3OC)cc2)s1 | inconclusive [inhibitor, partial curve] | – |
| Cc1cc(C(=O)CN2C(=O)NC(c3ccccc3)(c3ccccc3)C2=O)c(C)n1Cc1ccco1 | inconclusive [inhibitor, partial curve] | – |
| Cc1occc1C(=O)NCc1cccs1 | inconclusive [inhibitor, single point] | – |
| COCCCNc1oc(-c2ccccc2OC)nc1C#N | inconclusive [inhibitor, partial curve] | – |
| CC(C)c1ccc(/C=C/C(=O)Nc2nncs2)cc1 | – | inactive: -15.4% |
| CCc1nc2ccccc2c2nc3ccccc3n12 | inconclusive [inhibitor, single point] | – |
| O=C(CSc1ccc2nnc(-c3ccc(Cl)cc3)n2n1)N1CCCC1 | inconclusive [inhibitor, partial curve] | – |

— PubChem BioAssay AID894 (National Center for Advancing Translational Sciences (NCATS), 2007)
